# Data: the supplement of paper PMC11417369
# The other results are listed elsewhere or left out.
# Test system: PfHDP1 homeodomain (GST-tagged)
# Assay: gcPBM binding intensity (ln(normalized median fluorescence intensity)); higher = stronger DNA binding
# How it was run: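 Binding of GST-tagged P. falciparum DNA-binding domains, expressed in E. coli and used at about 25 μg on average, was carried out for 1 h in 1× PBS containing 1% milk, 0.2 mg/ml BSA, 0.5% salmon testes DNA and 0.03% Triton X-100. The target was an Agilent 4 × 180k array of primer-extended double-stranded 36-bp intergenic genomic probes plus negative controls, read with Alexa488 anti-GST antibody at 488 nm. Binding intensity is the highest Masliner-normalised natural-log median intensity across replicate spots of either probe orientation.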
row,Sequence,gcPBM binding intensity (ln)
1,AAAAACAACACAGATAAATTAACACACACACACATA [XGTACX_negctrl_site588],7.34
2,TATTTGTATAAATAAAAATAATATATATCAAATAAC [CACACA_negctrl_site218],6.4
3,AACACCCACAGACACACACACAAAAATGATTAAAAA [CACACA_site2433],6.82
4,TTTTTATATAAATAATGTACATTTGGTTTTATTATA [XGTACX_site2125],6.78
5,ACAAAAATATTATATTGTACATTATTAGTTCATATT [XGTACX_site6750],6.32
6,CATATATATAATTATTCACACAATAGTTAAAAGTAT [CACACA_site5302],6.62
7,TTTTTTTTTGAATATTGTACATATATATTACTTTTA [XGTACX_site5520],6.51
8,AAAAAATTATATAAATGTACATTTTGGCTAGACATG [XGTACX_site5977],6.54
9,TACATAAATTAAAACACACACACACTAATAAAAAAA [CACACA_site8712],6.9
10,ATATGTATGTATGTATGTACTTATTTATTTATTAAT [XGTACX_site8018],6.25
11,TAGCTCGTTCGGAGCACACACATATATATATATATA [CACACA_site1948],9.28
12,ATTCAATATATATACACACACACTTTTAATAATTAA [CACACA_site3770],6.95
13,GTTTTATTTTGTTTCTATTTGACACATGTGATTATT [CACACA_negctrl_site1246],7.01
14,ATATGTATTTATATATGTTTGATTTTTTTTTTTTTT [TGCATGCA_negctrl_site506],6.23
15,CATACAGACATACATACACACATACCTATAAATATA [CACACA_site6995],6.95
16,AAATGAAATAAAATCATATATTTATAATTATTATAA [TGCATGCA_negctrl_site612],6.07
17,AGGAAAAAAGAAAAAACACACATAAATATATATATA [CACACA_site3085],8.71
18,ATATTCTGCTGTTTAGTGCAATTATGAAATTATGAT,8.91
19,AAAGAGAACAGAAGTACACACATGTTCTTTTAGTAA [CACACA_site5557],6.28
20,AAAAAAAACAAACACACACACAAATATTTATATATT [CACACA_site436],6.76
21,TTTTTTTTTCTTTGGTGTACAATGTAATAGAAAATA [XGTACX_site227],6.42
22,TAAAAAGAAATGTAAAGTACAAATTTGAATAACATG [XGTACX_site7981],6.58

row,Sequence,gcPBM binding intensity (ln)
1,TAAAAAATAAAAATTGCACACTAAAAAATTACCCAC [CACACA_site5823],9.35
2,TTGATTTTTATTTTTAAAATAAATAAATTTCAAATG [TGCATGCA_negctrl_site199],5.95
3,CTAGTAAAAAATGCAAGTACATACATTATAAGTATA [XGTACX_site3908],6.55
4,ATATTGGAGCACAACACACACAAGTATAAATATGGA [CACACA_site6834],8.3
5,AAAAAACACGCACATACACACAAAAATGTTATAAAT [CACACA_site6188],7.49
6,ATCTCATAAAACCGCACACACATAAAATTTGCATTA [CACACA_site3891],8.02
7,TTATATTTTTTAATTACACACAATTTTTATAAATAT [CACACA_site4148],6.66
8,TCTTGTAAATATATGTGTATATTATATTTTATTATA [TGCATGCA_negctrl_site117],6.4
9,TGTTAAAATAAAATCTATTACATTTTTATGGTTATA [XGTACX_negctrl_site525],5.95
10,TGCAAGGAAAAACACACACACACATAAATGTATATA [CACACA_site751],6.74
11,CTTAATATTCTTTAAAGTACACAAAATAAGAATATA [XGTACX_site5489],6.55
12,ATTTCATATACAAATTGTACATACAATTTTATGTTT [XGTACX_site3240],6.46
13,TTAAAAATAATATTATGTACTAAGAATAAATATATA [XGTACX_site3100],6.47
14,AATATATATATATTCACACATAAAAAAGTAAAAAAA [CACACA_site5040],6.79
15,CACACGCACGAACACACACACACACGCATATAAATA [CACACA_site6302],7.67
16,TATCTCATAGTATACACACACACACCCACCCATATA [CACACA_site1739],7.52
17,TAATTATATGTATACACACACATACATTTACATAAC [CACACA_site3238],7.03
18,TTAATTTCTATATACGCATGTATGAATAAGATATTG [TGCATGCA_site202],6.18
19,ATTTTTTTATAAGAAAATTTCTAACGTTAAAAAAAA [CACACA_negctrl_site1367],6.33
20,CAAACAAACAAATATACACACTTTTGTATAAAGTAA [CACACA_site5860],6.35
21,TATAATTATATATATAGTACAGATTTGTTATGTTTA [XGTACX_site7724],6.02
22,AGCTCTTGTCATTTTGCACACACACCCGTATAGGTT [CACACA_site3056],10.3

row,Sequence,gcPBM binding intensity (ln)
1,TCTTTTTTTTTTAAACGTACATTGCATTATCACGTA [XGTACX_site6873],6.87
2,ATCCATTATTTTTGTTGTACGGGTAACTTTAAAAAG [XGTACX_site2226],6.8
3,AAAAGGGAAATAAAATAAAAAAAGAAACATATATAG [CACACA_negctrl_site455],6.69
4,GATTCTTCACCGTACTCACACATATATATATATATA [CACACA_site5665],9.36
5,TATATATATATAATAGTGCATAAATAAATATATAAA,9
6,TATCATTTCATATCAAGTACAAACATTTTACATATA [XGTACX_site5307],6.45
7,TTTTAATTAAGACACACACACACATATAAATATGTA [CACACA_site7144],6.69
8,ATAATAATATATATTGTACACACAAAATGGGAAAAA [CACACA_site8568],7.2
9,TGAAAAAGGAAAAAAAAAAAAAAAAAAAAAACGAAA [GTGCAC_negctrl_site555],5.92
10,TATTTATTATTAAGATGTACATAAAACACTGAATAA [XGTACX_site4246],6.28
11,GACCATATGAATAATGCACACGTTTTAAAATATTAA [CACACA_site5312],10.2
12,ATTAAGACACATTGCACACGTGCACCCATAGAAAAA [CACACA_site408],10.5
13,AACTATAAATATAAATGTACACATATGTAATATATA [XGTACX_site6085],6.57
14,CTTTTAAATTATTTTTGTACATAATTATATATATAT [XGTACX_site4128],8.27
15,TACTGTTTAAAATATAAACACACATTGTTTGCTTTA [CACACA_site8358],6.31
16,AAAAGGAAAATTTTCTTAGTAACTGCATTAAGAGAT [GTGCAC_negctrl_site675],6.67
17,TAAAAGTTATAAGAGTGTACGTATATTTATATATCA [XGTACX_site2972],6.25
18,TGAAAAATTACAAAAATAATAAAATGAAATAATAAA [GTGCAC_negctrl_site53],6.51
19,TTATTATATTCTCCTTCACACACAAAAATATTTCAT [CACACA_site8738],6.69
20,TTTTAATAACCAATCCGTACATATAATCTTTATATT [XGTACX_site536],6.21
21,TGGAAAAATAGGCACACACACATATATACATATATA [CACACA_site1297],6.88
22,AGGACTAATATTTGAACACACATATAACATATACAT [CACACA_site7803],6.56

row,Sequence,gcPBM binding intensity (ln)
1,TAAAAAACTTCGTGTTCACACATGTACTATATTATT [CACACA_site4796],6.3
2,TTTTTTTTTTTTTGTTGTACATTAAATATATTATTA [XGTACX_site7254],6.43
3,ACCCATAAGATAATTACACACAATACATCCCTATAT [CACACA_site5262],6.79
4,AAGTATAACCTTTATAATAATGACATGACCGATTTT [CACACA_negctrl_site395],6.04
5,AAGCATATTATAAACACACACTGTATAAAGATATAT [CACACA_site6277],6.75
6,ATATAACGAATAATTACACACTATAAAAAAAGATCT [CACACA_site2862],6.63
7,TATAACCGAATGTGTACACAAAATAATGTTATATAT [CACACA_site5627],7.77
8,ATAATACGAATTTGTAGTACATTTATAATAACATGA [XGTACX_site2614],6.26
9,TTGATTATAATTAGTACACACAAAATACATGCGGGG [CACACA_site2277],7.34
10,AAATATATAATACATATGTAATATGCATATATATAT [GTGCAC_negctrl_site450],8.8
11,TGAATGTAAGAAAATACACACTAGTATAGTAACACC [CACACA_site5131],7.02
12,TTTTTATTACTTCTCTGTACTCAGGAAAATAAATAT [XGTACX_site2092],6.13
13,CCTCTTTATTTTAATTGTACATTTTTGTAGGTTTTT [XGTACX_site7130],6.82
14,TCCTTTTTTTTGTAATGTACTTAGTTTGGTTATATG [XGTACX_site8208],6.88
15,ATGTATATATATATATGTACTAATTAGTAATTTACG [XGTACX_site6276],6.96
16,AAAACAAACCCATTTACACACATAAATAAATCAATT [CACACA_site6126],6.49
17,TAAAATAAAACAAACACACACACACCCCCACAAAAA [CACACA_site3850],8.56
18,TATTTACATGTAAAAGGTACACACATTATATATACA [XGTACX_site2157],6.82
19,ATACACTTTTATATATCAATACATTATGTATTAAGT [CACACA_negctrl_site421],6.84
20,TTTATTATTTTTTGTAGTACTTTATATAAAAGTTCT [XGTACX_site4494],6.86
21,AAAAAGAAGATATATACACACCAAAAAAAAAAAAAA [CACACA_site7471],6.24
22,TAAGGAAAAAGAAAAAGTACATTATATAATAAATAG [XGTACX_site3282],6.72
